We go through 21 variants from the RNAGym collection of RNA variant scans (doi:10.7554/elife.90254).

Read counts are not given, so values of variants with three or more changes are uncertain.

To fix the notation:
B1: OR4K15 (parent)
chain: GUUAACGGUCAUAGGCCAUGGAAACUAGGAGCACCAUUUCGCUGCCAGUGAAGAAAUGAACAAAGAAAAUCUGGGCCAGGCAGGCAUCAAAAGAAAUAGUCUUGCGCUCAACCAGAAAGUCUGUAAUCAUUUUAAGGGUA

The data set covers variants of B1. Kind of data set: self-cleavage, relative activity (ratio to wild type); higher = more cleavage; in vitro, sequencing; the parent is a self-cleaving ribozyme.
On to GUUAACGGCCAUAGGCCAUGGAAUCUAGGAGCACCAUUUCGCUGCCAGCGAAGAAAUGAACAUAGAAAAUCUGGGCCAGGCAGGCAUUAAAAGAGAUAGCCUUGCGCUCAACCAGAAAGUCUGUAAUCAUUUUAAGGGUA [U9C A24U U49C A63U C88U A95G U100C], for which the self-cleavage was found to be 1.86.

As for GUUAACGGCCAUAGGCCAUGGAAACUAGGUGCACCAUUUCGCCGCCAGUGAAGAAAUGAACAAAGAAAAUCUGGGCCAGGCAGGCAUCAAAAGAAAUAGUCUUGCGCUCAACCAGAAAGCCUGUAAUCAUUUUAAGGGUA [U9C A30U U43C U120C], the self-cleavage was 0.68.

On to GUUAACGGCCAUAGGCCAUGGAGACUAGGAGCACCAUUUCGCUGCCAGUGAAGAAAUGAACAAAGAAAAUCUGGGCAAGGCAGGCAUCAAAAGAAAUAGUCUUGCGCUCAACCAGAAAGUCUGUAAUCAUUUUAAGGGUA [U9C A23G C77A], for which the self-cleavage is 0.75.

For the variant GUUAACGGCCAUAGGCCAUGGAGACUAGGAGCACCAUUUCGCUGCCAGUGAAGAGGUGAACAAAGAAAAUCUGGGCCAGGCAGGCAUCAAAGGAAAUAGUCUUGCGCUCAACCAGAAAGUCCGUAAUCAUUUUAAGGGUA [U9C A23G A55G A56G A92G U122C], the self-cleavage came to 0.6.

For the variant GUUAACGGCCAUAGGCCAUGGAAACUAGGAGCACCGUUUCGCUGCCAGUGAAGAAAUGAACAAGGAAAAUCUGGGCCAGUCAGGCAUCAAAAGAAAUAGUCUUGCGCUCAACCAGAAAGUCUGUAAUCAUUUUAAGGGUA [U9C A36G A64G G80U], the self-cleavage came out at 0.19.

On to GUUAACGGCCAUAGGCCAUGGAAACUAGGAGCGCCAUUUCUCUGCCAGUGAAGAAAUGAACAAAGAAAAUCCGGGCCAGGCAGGCAUCAAAAGAAAUAGUCUUGCGCUCAACCAGAAAGUCUGUAAUCAUUUUAAGGGUA [U9C A33G G41U U72C], for which the self-cleavage was determined as 0.11.

As to GUUAACGGCCAUAGGCCAUGGAAACUAGGAGCGCCAUUUCGCUGCCAGUGGAGAAAUGAACAAAGAAAAUCUGGGCCAGGCAGGCAUCAAAAGAAAUAGUCUUGCGCUCGACCAGAAAGUCUGUAAUCAUUUUAAGGGAA [U9C A33G A51G A110G U139A], the self-cleavage was 0.13.

For the variant GUUAACGGCCAUAGGCCAUGGAAUCUAGGAGCACCAUUUCGCUGCCAGUGAAGGAAUGAACAAAGAAAAUCUGGGCCAGGCAGGCAUCAAAAGAAAUAGUCCUGCGCUCAACCAGAAAGUCUGUAAUCAUUUUAAGGGUA [U9C A24U A54G U102C], the self-cleavage stood at 1.96.

Consider GUUAACGGCCAUAGGCCAUGGAAACUAGGAGCGCCAUUUCGCUGCCAGUGAAGAAAUGAACAAAGAAAAUCUGGGCCAGGCAGGCAUCAAAAGAAAUAGUCUUGCGCACAACCAGAAAGUCUGUAAUCAUUUUAAGGGUA [U9C A33G U108A], for which the self-cleavage came to 0.05.

As to GUUAACGGCCAUAGGCCAUGGAAACUGGGAGCACCAUUUCGCUGCCAGUGAAGAAAUGAACAAAGAAAAUCUGGGCCAGGCUGGCAUCAAAAGAAAUAGUCUUGCGCUCAACCAGAAAGUCUGUAAUCAUUUUAAGGGUA [U9C A27G A82U], the self-cleavage was determined as 0.31.

With GUUAACGGCCAUAGGCCAUGGAGACUAGGAGCACCAUUUCGCUGCCAGUGAAGAAAUGAACGAAGAAAUUCUGGGCCAGGCAGGCAUCAAAAGAAAUAGUCUUGCGCUCAACCAGAAAGUCUGUAAUCAUUUUAAGGGUA [U9C A23G A62G A69U], the self-cleavage is 1.31.

Take GUUAACGGCCAUAGGCCAUGGAAACUAGGGGCACCAUUUCGCUGCCAGUGAAGAAACGAACAAAGAAAAUCUGGGCCAGGCAGGCAUCAAAAGAAAUAGUCUUGCGCUCAACCAGAAGGUCUGUAAUCAUUUUAAGGGUA [U9C A30G U57C A118G]: the self-cleavage amounted to 1.58.

As for GUUAACGGCCAUAGGCCAUGGAGACUAGGAGCACCAUUUCGCUGCCGGUGAAGAAAUGAACAAAGAAAAUCUGGGCCAGGCAGGCGUCAAAAGAAAUAGUCUCGCGCUCAACCAGAAAGUCUGUAAUCAUUUUAAGGGUA [U9C A23G A47G A86G U103C], the self-cleavage amounted to 0.25.

With GUUAACGGCCAUAGGCCAUGGAUACUAGGAGCACCAUUUCGCUGCCAGUGAAGAAACGAACAAAGAAAAUCUGGGCCAGGCAGGCAUCAAAAGAAAUAGUCUUGCGCUCAACCAGAAAGUCUGUAAUCAUUUUAAGGGUA [U9C A23U U57C], the self-cleavage was found to be 1.42.

Consider GUUAACGGCCAUAGGCCAUGGAGACUAGGAGCACCAUUUCGCUGCCAGUGGAGAAAUGAACAAAGAAAAUCUGGGCCAGGCAGGCAUCAAAAGAAAUAGUCUUGCGCUCAACCGGAAAGUCUGUAAUCAUUUUAAGGGUG [U9C A23G A51G A114G A140G], for which the self-cleavage is 0.81.

With GUUAACGGCCAUAGGCCAUGGAAGCUAGGAGCACCAUUUCGCUGCCAGUGAAGAAAUGAACAAAGAAGAUCUGGGCCAGGCAGGCAUCAAAAGAAAUAGUCUUGCGCUCAACCAGAAAGUCUGUAAUCAUUUUAAGGGUA [U9C A24G A68G], the self-cleavage was 1.74.

For the variant GUUAACGGCCAUAGGCCAUGGAGACUAGGAGCACCAUUACGCUGCCAGUGAAGAAAUGAACAAAGAGAAUCUGGGCCUGGCAGGCAUCAAAAGAAAUAGUCUUGCGCUCAACCAGAAAGUCUGUAAUCAUUUUAAGGGUA [U9C A23G U39A A67G A78U], the self-cleavage stood at 0.48.

Take GUUAACGGCCAUAGGCCAUGGAAACUAGGGGCACCAUUUCGCUGCCAGUGAAGAAAUGAACAAAGAAAAUCUGGGCCAGGCAGGCAUCAAAAGAAAUAGUCUUGCGCUCAACCAGAAAGUCUGUAAUCAUUUUAAGGGUU [U9C A30G A140U]: the self-cleavage was determined as 1.33.

Regarding GUUAACGGCCAUAGGCCAUGGAAACUAGGGGCACCAUUUCGCUGCCAGUGAAGAAACGAACAAAGAAGAUCUGGGCCAGGCAGGCAUCAAAAGAAAUAGUCUUGCGCUCAACCAGAAAGUCUGUAAUCAUUUUAAGGGUA [U9C A30G U57C A68G], the self-cleavage is 1.13.

In the case of GUUAACGGCCAUAGGCCAUGGAAACUAGGAGCGCCAUUUCGCUGCCAGUGAAGAAAUGAACAAAGAAAAUCUGGGCCAGGCAGGCAUCAAAAGAAAUAGUCUUGCGCUCAACCAGGAAGUCUGUAAUCAUUUUAAGGGUA [U9C A33G A116G], the self-cleavage was found to be 0.66.

Turning to GUUAACGGCCAUAGGCCAUGGAGACUAGGAGCACCAUUUCGCUGCCAGUGUAGAAAUGAACAAAGAAAGUCUGGGCCAGGCGGGCAUCAAAAGAAAUAGUCUUGCGCUCAACCAGAAAGUAUGUGACCAUUUUAAGGGUA [U9C A23G A51U A69G A82G C121A A125G U127C], the self-cleavage is 0.07.
